The record followed here is the supplement of paper PMC8728848.

Experiment in all cases: glycan array binding signal (z-score within array); higher = stronger binding
Common to all, as to details: glycan notation: IUPAC condensed, linker removed

Assay [1] deals with Neu5Ac(a2-3)Gal(b1-4)GlcNAc(b1-6)GalNAc. The essentials: (§1)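 Glycan array data were curated from 3228 arrays in the Consortium for Functional Glycomics database and kept only where the protein sequence was available. Glycan names were converted to IUPAC-condensed notation, and columns mapping to the same glycan were averaged. The binding signal is a within-array Z-score, averaged across arrays of the same protein sequence at different concentrations or buffers and across linkers. Negative Z-scores can be read as non-binding.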

Assay [2] addresses Neu5Ac(a2-3)Gal(b1-4)GlcNAc(b1-6)[Gal(b1-3)]GalNAc. The essentials:
as §1

Assay [3] concerns the target Neu5Ac(a2-3)Gal(b1-4)GlcNAc(b1-6)[Neu5Ac(a2-3)Gal(b1-3)]GalNAc. The essentials: as §1
For assay [4], the target named is Neu5Ac(a2-3)Gal(b1-4)GlcNAc6S. The essentials:
as §1

The target of assay [5] is Neu5Ac(a2-3)Gal(b1-4)[Fuc(a1-3)]GlcNAc. The essentials:
as §1

Assay [6] addresses Neu5Ac(a2-3)Gal(b1-4)[Fuc(a1-3)]GlcNAc(b1-2)Man. The essentials:
as §1

The target of assay [7] is Neu5Ac(a2-3)Gal(b1-4)[Fuc(a1-3)]GlcNAc(b1-3)Gal. The essentials:
as §1

The target in assay [8] is Neu5Ac(a2-3)Gal(b1-4)[Fuc(a1-3)]GlcNAc(b1-3)Gal(b1-4)GlcNAc. The essentials: as §1
In assay [9] the target is Neu5Ac(a2-3)Gal(b1-4)[Fuc(a1-3)]GlcNAc(b1-3)Gal(b1-4)[Fuc(a1-3)]GlcNAc(b1-3)Gal(b1-4)[Fuc(a1-3)]GlcNAc. The essentials: as §1
Assay [10] deals with Neu5Ac(a2-3)Gal(b1-4)[Fuc(a1-3)]GlcNAc(b1-3)GalNAc. The essentials: as §1
The target in assay [11] is Neu5Ac(a2-3)Gal(b1-4)[Fuc(a1-3)]GlcNAc(b1-6)[Gal(b1-3)]GalNAc. The essentials:
as §1

In assay [12] the target is Neu5Ac(a2-3)Gal(b1-4)[Fuc(a1-3)]GlcNAc(b1-6)[Neu5Ac(a2-3)Gal(b1-3)]GalNAc. The essentials: as §1
The target of assay [13] is Neu5Ac(a2-3)Gal(b1-4)[Fuc(a1-3)]GlcNAc6S. The essentials: as §1
The target of assay [14] is Neu5Ac(a2-3)Gal6S(b1-4)GlcNAc. The essentials: as §1
In assay [15] the target is Neu5Ac(a2-3)Gal6S(b1-4)[Fuc(a1-3)]GlcNAc. The essentials: as §1
A further assay deals with Neu5Ac(a2-3)GalNAc. The essentials:
as §1

The target of assay [16] is Neu5Ac(a2-3)GalNAc(b1-4)GlcNAc. The essentials:
as §1

For assay [17], the target named is Neu5Ac(a2-3)[GalNAc(b1-4)]Gal(b1-4)Glc. The essentials: as §1
For assay [18], the target named is Neu5Ac(a2-3)[GalNAc(b1-4)]Gal(b1-4)GlcNAc. The essentials: as §1
Assay [19] has as its target Neu5Ac(a2-3)[GalNAc(b1-4)]Gal(b1-4)GlcNAc(b1-3)GalNAc. The essentials: as §1
Assay [20] addresses Neu5Ac(a2-3)[Neu5Ac(a2-6)]GalNAc. The essentials: as §1
In a further assay the target is Neu5Ac(a2-6)Gal. The essentials:
as §1

Assay [21] deals with Neu5Ac(a2-6)Gal(b1-3)GlcNAc(b1-3)[Gal(b1-4)GlcNAc(b1-6)]Gal(b1-4)Glc. The essentials: as §1

Some of the results follow.

B1: PX14379A-bvu-539-28-539 (Bacteroides vulgatus) (protein)
chain: EPYSEIIEEDYVPTEADEIALLATTYSQLRFVMDWYGLFDLQEESGDVIVTPTRPNGWDDGGTYKQMHKHTWDNQQGQPQSIWDYCYKGIANANKILKRADEGFFTEESKPKVVAEVKGVRALWYSILCDTHGNIPIQTSFSEEVPVQSTRKQVFDFIINELKEVMPNLPTEVNKSTYGRLTQWGAKCLMARMYLNAGVYTGTPMWNECLEQCNDIINSGLFSLETNYTDIFKTENSGCVETIFAIPYDEVYNEGDNNGPVFGAHMKFLSSNSRKVFNMQTTPWGGSAANPQFINSYDPDDMRLKYTWLQGDQYSPDGVLITTFPNKLPSIYKTDTDDGYRVGKYEIKVGAKSLLSNDFPYFRYTEVLLMKAECLLRLGQNETEAAHIVSQIRERAFRESAHPEKATVDAAWLKGDTHINYGTLDEKGQIDDAGNTEVVELGGLYDEWGWEFAAEARRRTDMIRFGTYQKKSWFNHTPTANDLNGNSILFPIHLDHLNTNPNLQQNPGYAGK
On to B1, for which the “glycan array binding signal (z-score)” value in assay [1] is -0.273; in assay [2], -0.388; in assay [3], -0.36; in assay [4], -0.045; in assay [5] it was -0.286; in assay [6], -0.132. Moreover, the “glycan array binding signal (z-score)” value in assay [7] was -0.569; in [8] it was 0.004; in [9], -0.35; in assay [10], 5.8; in assay [11], -0.11; in [12] it was -0.096. The “glycan array binding signal (z-score)” value is -0.064 in assay [13]; -0.25 in assay [14]; -0.493 in assay [15]; -0.249 with Neu5Ac(a2-3)GalNAc; 0.016 in [16]; -0.297 in [17]. Moreover, the “glycan array binding signal (z-score)” value in assay [18] is -0.191; in [19], 0.886; in assay [20], -0.068; with Neu5Ac(a2-6)Gal, 0.024; in assay [21], -0.294.
